Assay: soluble fraction after stress (log2 fold change); higher = more stays soluble; pooled small domains, quantitative proteomics
Conditions: stress: 50 degC
Summary of the method: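 After stress at 50°C, the amount of each protein still soluble was measured. This was done on pooled custom libraries of small protein domains, using high-throughput quantitative proteomics. The figure given is a base-two log fold change and stands for aggregation propensity, with higher values meaning more protein stays in solution.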

Row | Sequence | soluble fraction (log2)
1 | HMAKGTVKWFNETKGYGFIAPEGGKKDVFVHITALERAGLRGLKDGQAVNFDIEAGRDGRESAINITL | -0.121
2 | HMKVDQVDDAELLDLVEMEIRELLSSYDFPGDDVPIVKGSALAAVEDRDEAIGKNSIIELMSKVDEYIPAP | 0.059
3 | HMAMINTVQPILVEGLSKKNNDTLFGRTENNRVVNFEGSRSLIGNFVNIKITEALSNSLRGIIQS | -0.126
4 | HMDEEMLELVEMEMRELLSFYDFDGDNTPIIRGSALGALNGVPQWEDKVMELMDAVDTWIPLP | -0.44
5 | HMGMVGTNHRILVDGVSRKNAGHLSGRTENNRVVNFAAGEASIGDFRDVRITEALPNSLRAEVLG | 0.0476
6 | HMYDTKLTTQDAADYLGISRPTLEKLLEQGDIPFTRVGRHRRVMLSDLQHYAVTQHDKNMQIFDAIAA | -0.0704
7 | HMQPVNIEPRSPLHAQVLLDRANFSPGQIDGEVGSNQRRAVSGLQAARGLKVTGELDEETWQALQAD | 0.031
8 | HMVDDEELLDLVEMEVRELLDDYEFPGDDTPIIRGSALMALEDPAGPWGDKIVELFEAVDSYIP | -0.0338
9 | HMSASHYDVLNLKKTASETEIKKAYRKLAVEYHPDKVMNLGEEYQKAAKEKFQKVQEAYEQIKLERGI | 0.136
